According to the supplement of paper PMC7826260:
This is one part of the list. One pool of 16,384 single-stranded DNAs met each Rep nickase domain in vitro for 1 h at 37 °C with 3 µM enzyme; only the middle of the 90-letter strands is printed. Uncut reads are compared with the no-enzyme pool on a log2 scale; more negative means more cut, near 0 not cut, and no call is made. Shares of all reads are compared, so uncut sequences can rise above 0 when many others are cut.

Columns and labels:
Test in all cases: uncleaved DNA left, log2 of reads against the no-enzyme library (log2 ratio); higher = less cleavage (more negative = more Rep cleavage of the k-mer); sequences stand for … in CTCGTCCG…ACCGGAGA
[1] = tested on: T1, Rep nickase domain of Muscovy duck circovirus
T1 sequence (residues 1-111, tag not shown): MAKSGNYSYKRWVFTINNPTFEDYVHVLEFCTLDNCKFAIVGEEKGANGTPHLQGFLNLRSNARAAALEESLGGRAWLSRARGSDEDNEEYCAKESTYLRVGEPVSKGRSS
Description: (§1)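 A pool of 90-nt single-stranded DNAs with seven random bases just before the constant AC of the nick site (name = the seven bases) was cut by 3 µM recombinant His6-SUMO-tagged Rep nickase domain (300 nM DNA, 50 mM HEPES pH 8.0, 50 mM NaCl, 1 mM MnCl2, 1 h, 37 °C, three replicates). Uncut DNA was amplified and sequenced.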

[2] = tested on: T2, Rep nickase domain of banana bunchy top virus
T2 sequence (residues 1-94, tag not shown): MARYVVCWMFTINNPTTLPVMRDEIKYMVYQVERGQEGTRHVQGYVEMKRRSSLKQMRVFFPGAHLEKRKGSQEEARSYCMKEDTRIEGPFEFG
Description: as §1

[3] = tested on: T3, Rep nickase domain of cabbage leaf curl virus
T3 sequence (residues 1-116, tag not shown): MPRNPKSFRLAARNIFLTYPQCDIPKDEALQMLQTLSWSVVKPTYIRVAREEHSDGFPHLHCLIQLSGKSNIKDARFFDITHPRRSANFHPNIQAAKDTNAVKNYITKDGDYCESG
Description: as §1

[4] = tested on: T4, Rep nickase domain of chickpea chlorotic dwarf virus
T4 sequence (residues 1-124, tag not shown): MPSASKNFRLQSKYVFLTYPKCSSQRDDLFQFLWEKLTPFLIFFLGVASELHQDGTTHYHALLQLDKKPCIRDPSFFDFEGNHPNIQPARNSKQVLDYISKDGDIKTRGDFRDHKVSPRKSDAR
Description: as §1

[5] = tested on: T5, Rep nickase domain of faba bean necrotic yellows virus
T5 sequence (residues 1-98, tag not shown): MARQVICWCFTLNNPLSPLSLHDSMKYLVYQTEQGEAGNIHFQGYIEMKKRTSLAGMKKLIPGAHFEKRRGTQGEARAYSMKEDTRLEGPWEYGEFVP
Description: as §1

[6] = tested on: T6, Rep nickase domain of maize striate mosaic virus
T6 sequence (residues 1-117, tag not shown): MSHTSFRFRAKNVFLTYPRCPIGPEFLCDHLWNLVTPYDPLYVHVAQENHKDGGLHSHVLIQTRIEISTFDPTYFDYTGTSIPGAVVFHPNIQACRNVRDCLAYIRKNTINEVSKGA
Description: as §1

[7] = tested on: T7, Rep nickase domain of porcine circovirus 2
T7 sequence (residues 2-116, tag not shown): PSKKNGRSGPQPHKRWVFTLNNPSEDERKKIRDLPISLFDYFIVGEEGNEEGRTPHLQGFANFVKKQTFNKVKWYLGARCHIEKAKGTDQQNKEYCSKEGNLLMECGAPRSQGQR
Description: as §1

[8] = tested on: T8, Rep nickase domain of tomato golden mosaic virus
T8 sequence (residues 1-124, tag not shown): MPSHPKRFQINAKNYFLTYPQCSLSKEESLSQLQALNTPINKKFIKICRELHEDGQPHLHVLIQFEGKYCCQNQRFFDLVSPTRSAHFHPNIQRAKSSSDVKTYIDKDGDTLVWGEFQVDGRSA
Description: as §1

[9] = tested on: T9, Rep nickase domain of tomato yellow leaf curl virus
T9 sequence (residues 1-136, tag not shown): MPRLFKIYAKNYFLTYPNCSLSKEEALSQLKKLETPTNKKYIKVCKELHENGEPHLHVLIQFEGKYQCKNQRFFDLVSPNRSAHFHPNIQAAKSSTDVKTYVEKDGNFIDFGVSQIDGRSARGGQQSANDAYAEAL
Description: as §1

[10] = tested on: T10, Rep nickase domain of wheat dwarf virus
T10 sequence (residues 1-137, tag not shown): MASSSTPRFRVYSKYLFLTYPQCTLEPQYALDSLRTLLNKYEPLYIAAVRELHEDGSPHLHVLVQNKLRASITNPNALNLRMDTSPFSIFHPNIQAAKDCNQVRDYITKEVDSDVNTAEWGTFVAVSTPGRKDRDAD
Description: as §1

Row | Sequence | uncleaved DNA left (log2) [1] | uncleaved DNA left (log2) [2] | uncleaved DNA left (log2) [3] | uncleaved DNA left (log2) [4] | uncleaved DNA left (log2) [5] | uncleaved DNA left (log2) [6] | uncleaved DNA left (log2) [7] | uncleaved DNA left (log2) [8] | uncleaved DNA left (log2) [9] | uncleaved DNA left (log2) [10]
1 | ATCCGTT | -0.0886 | -0.155 | -0.303 | -1.18 | -0.205 | -0.886 | -0.81 | -0.267 | -0.184 | -0.171
2 | GTCGAAA | 0.221 | 0.0261 | 0.36 | 1.01 | -0.0773 | 1.69 | 0.148 | 0.182 | 0.2 | 0.189
3 | GCCAAGG | -0.0745 | 0.00336 | 0.223 | 1.09 | -0.0693 | 0.888 | 0.0104 | 0.0459 | -0.0749 | 0.00531
4 | CAAGGAT | 0.162 | -0.0487 | 0.23 | 1.6 | 0.00776 | 1.84 | 0.194 | -0.14 | -0.188 | 0.00421
5 | GAAAGCC | -0.0544 | -0.0417 | -0.148 | -0.216 | -0.0235 | -0.361 | 0.0895 | -0.0983 | -0.00552 | -0.0373
6 | CGCTGCG | -0.0898 | -0.109 | -0.475 | 0.867 | 0.0366 | -0.124 | 0.0758 | -0.198 | -0.198 | -0.0518
7 | TGGCCGC | -0.0193 | -0.00494 | 0.00855 | -0.285 | -0.0444 | -0.182 | -0.00488 | -0.135 | 0.0115 | -0.0286
8 | GTATCTA | 0.0459 | 0.0377 | 0.303 | 0.756 | -0.116 | 1.65 | -0.0436 | 0.0697 | -0.00804 | 0.0816
9 | TCGTCTG | 0.0522 | 0.0384 | 0.0352 | 0.648 | 0.0422 | 1.33 | 0.0812 | -0.0322 | -0.0101 | 0.0704
10 | AAGGGCT | -0.0233 | -0.0176 | 0.137 | 0.774 | -0.0695 | 1.07 | 0.0375 | 0.104 | -0.00367 | 0.019
11 | CTTGACG | -0.0279 | -0.0231 | -0.783 | -0.508 | -0.027 | -0.943 | 0.172 | -0.153 | 0.105 | -0.145
12 | CCGTTGG | -0.0253 | 0.0141 | -0.535 | -0.602 | 0.0767 | -1 | 0.133 | -0.0251 | 0.0061 | -0.191
13 | GAACTTT | 0.058 | 0.00361 | -0.142 | -1.92 | -0.105 | 1.43 | -0.254 | -0.0553 | 0.0678 | -0.0382
14 | ACACTCT | 0.094 | -0.012 | -0.366 | -2.53 | -0.0267 | -0.811 | -0.076 | 0.0924 | -0.059 | -0.0965
15 | CATCGTT | -0.0294 | -0.155 | -0.564 | -2.42 | -0.0663 | -0.93 | -2.26 | -0.122 | -0.137 | -0.142
16 | GAGCTCA | 0.042 | -0.000735 | 0.0683 | -0.373 | -0.1 | 0.657 | -0.642 | 0.0684 | 0.0315 | 0.113
17 | CTGCAAG | 0.118 | 0.00411 | -0.846 | -0.399 | 0.0678 | -1.2 | 0.155 | -0.078 | 0.129 | -0.152
18 | AGGCCAC | -0.0622 | 0.027 | 0.309 | 0.323 | 0.0556 | 0.83 | 0.0725 | -0.0398 | -0.00174 | 0.0237
19 | GTCGCGG | 0.043 | 0.054 | 0.341 | 0.772 | -0.154 | 1.21 | 0.036 | 0.207 | -0.0194 | 0.107
20 | ATAAGAA | 0.16 | 0.0141 | -0.361 | -0.797 | 0.0374 | -0.664 | 0.133 | 0.0907 | 0.0247 | 0.0402
21 | AGTCGGT | 0.104 | 0.0522 | 0.31 | 0.602 | 0.00301 | 0.931 | -1.95 | 0.0319 | 0.0162 | 0.0906
22 | AATCAGT | -0.0529 | 0.0247 | -0.435 | -1.3 | 0.0445 | -1.09 | -1.92 | 0.0161 | 0.0051 | -0.0874
23 | CAGATGC | 0.0458 | -0.136 | -0.491 | -0.545 | -0.0443 | -1.04 | 0.161 | -0.099 | -0.00151 | -0.0484
24 | AGAAATC | 0.000925 | 0.0854 | 0.347 | 0.663 | 0.127 | 0.00751 | 0.133 | 0.041 | 0.0422 | 0.12
25 | ATAGGCG | -0.0493 | -0.0513 | -0.702 | 0.803 | -0.0289 | -0.219 | 0.0563 | -0.0512 | -0.0638 | -0.246
26 | ACCATTC | 0.0156 | -0.0592 | -0.379 | -0.274 | 0.0281 | -0.976 | 0.0683 | -0.15 | -0.0665 | -0.0958
27 | TCCGTAG | 0.0207 | 0.124 | -0.337 | -0.295 | -0.179 | -0.814 | 0.0337 | -0.0414 | -0.00927 | -0.113
28 | GGGCTGA | 0.153 | 0.212 | 0.851 | 1.96 | 0.0681 | 2.31 | 0.282 | 0.122 | 0.0456 | 0.141
29 | CCGGACG | -0.0824 | 0.0206 | -0.579 | -0.354 | -0.0562 | -0.909 | 0.0183 | 0.0786 | -0.16 | -0.115
30 | TTGGATT | 0.0513 | -0.0822 | 0.0612 | -0.22 | -0.0468 | 1.19 | -0.182 | -0.073 | -0.0716 | -0.124
